Out of some 45,000 compounds screened, about 65 (0.1%) were called active. Calls come from the whole dose curve; as a rule, active = well fitted activation curve with a large enough effect; inconclusive = small, poorly fitted or top-dose-only effect; inactive = no such curve, though single readings can be large or run the other way. Some of the results follow.
Each compound was assayed against Galactocerebrosidase (Homo sapiens) (UniProt P54803) (assay: A Novel Cell-Based Assay to Identify Small Molecules for B -Galactocerebrosidase). Conditions: 145M-Twi-hGALC-G270D cells (Twitcher mouse brain line with human GALC G270D), HMU-beta-Gal fluorescence, 48 h; series mostly up to 57.5 µM; activation: at the top concentration.
Summary of the method: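 Brain-derived Twitcher mouse 145M-Twi cells stably expressing human GALC-G270D or wild-type GALC, treated live, then residual GALC activity read by fluorescence of HMU-b-Gal substrate (0.1 mM final) in citrate-phosphate buffer pH 5.2 with sodium taurocholate. Signal increase indicates enhancement.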
Note: 0% is about no effect; nearly all actives have a fitted effect of over 65% in size.

Sequence of UniProt P54803 (P54803 whole entry, looked up): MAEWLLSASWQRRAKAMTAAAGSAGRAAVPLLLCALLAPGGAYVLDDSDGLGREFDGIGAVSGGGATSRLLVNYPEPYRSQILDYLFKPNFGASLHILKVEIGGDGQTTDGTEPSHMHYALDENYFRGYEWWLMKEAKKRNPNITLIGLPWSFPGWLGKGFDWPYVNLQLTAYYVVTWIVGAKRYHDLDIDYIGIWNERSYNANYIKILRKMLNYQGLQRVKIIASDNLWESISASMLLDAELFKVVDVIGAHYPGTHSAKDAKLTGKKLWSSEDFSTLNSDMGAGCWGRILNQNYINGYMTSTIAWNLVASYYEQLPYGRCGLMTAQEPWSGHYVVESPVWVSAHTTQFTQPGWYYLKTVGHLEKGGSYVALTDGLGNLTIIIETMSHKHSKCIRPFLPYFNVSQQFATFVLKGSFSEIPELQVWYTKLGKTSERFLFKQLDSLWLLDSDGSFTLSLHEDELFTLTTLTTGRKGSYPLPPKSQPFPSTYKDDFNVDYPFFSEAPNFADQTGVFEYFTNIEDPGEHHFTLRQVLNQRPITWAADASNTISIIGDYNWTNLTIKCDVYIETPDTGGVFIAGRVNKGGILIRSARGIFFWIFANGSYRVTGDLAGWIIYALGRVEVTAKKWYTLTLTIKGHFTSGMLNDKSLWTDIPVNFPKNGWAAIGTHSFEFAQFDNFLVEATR

activation, inactive:
CN(C)c1ccc(C(CNS(=O)(=O)c2ccc(Cl)cc2)N2CCCC2)cc1 (stereo not drawn) -27.4%
CC1=C(C(=O)Nc2ccc(C)cc2C)C(c2ccccc2C)n2ncnc2N1 (stereo not drawn) 0.365%
COc1ccc(CCNC(=O)NCc2noc3ccccc23)c(OC)c1 -14.1%
COc1ccccc1CNC(=O)C1CCN(Cc2nc(-c3ccc(OC)c(OC)c3)oc2C)CC1 5.42%
C#C[C@]1(O)CC[C@H]2[C@@H]3CCc4cc(OC)ccc4[C@H]3CC[C@@]21C -12.3%
Cc1ccccc1CNC(=O)c1ccc(-n2c(C)cc3c2CCCC3)cc1 -14.2%
CCCN(CCC)C(=O)Cn1c(=O)n(Cc2ccc(C(=O)NCCc3ccc(OC)c(OC)c3)cc2)c(=O)c2ccccc21 22.1%
COCCNC(=O)c1ccc(Cn2c(SCC(=O)NC(C)C)nc3ccccc3c2=O)cc1 -9.94%
CC1=C(C(=O)Nc2ccc(C)cc2C)C(c2sccc2C)n2ncnc2N1 (stereo not drawn) -5.93%
COc1ccc(-n2c(SCC(=O)N3CCC(C)CC3)nc3c([nH]c4ccccc43)c2=O)cc1 -16.3%
COCCCNC(=O)c1cc(-c2cccnc2)nc2ccccc12 -1.34%
CCOc1ccccc1-c1nnc(SCc2ccc(Cl)cc2)o1 -11.3%
COc1ccc(OC)c(NC(=O)c2csnn2)c1 -18.6%
COc1cc(C=O)ccc1O -15.9%
CCOc1ccccc1N(C)C(=O)c1nn(-c2ccc(C)cc2)c(=O)c2c1c1ccccc1n2C -10.9%
COc1ccc(CNC(=O)c2ccc3c(c2)N(Cc2ccccc2)C(=O)c2ccccc2S3(=O)=O)cc1 -12.2%
COc1ccc(-c2cc3nc(C4CCN(C(=O)OC(C)(C)C)CC4)c(C(=O)Nc4cc(Cl)cc(Cl)c4)cn3n2)cc1 -6.28%
O=C(Nc1nnc(S(=O)(=O)N2CCCc3ccccc32)s1)c1ccccc1Br -10%
Cc1ccc2occ(CC(=O)Nc3nnc(C(C)C)s3)c2c1 -13.2%
COc1ccc2cccc(CCNC(C)=O)c2c1 -14.4%
CCOc1cccc(C2c3c(oc4ccccc4c3=O)C(=O)N2c2nc(C)c(C(=O)OC)s2)c1 (stereo not drawn) -9.63%
CCOc1ccc(NC(=O)c2cccc(N3CCCS3(=O)=O)c2)cc1 -10.3%
Cc1ccc(C)c(N2CCN(C(=O)CN3C(=O)COc4ccc(S(=O)(=O)N5CCOCC5)cc43)CC2)c1 -16.1%
CCN(c1cccc(C)c1)C(CNS(=O)(=O)c1ccccc1)c1ccccc1 (stereo not drawn) -11%
Cc1cccc(-c2cc(NC(=O)c3ccccc3C)n(-c3ccccc3)n2)c1 -11.5%
COC(=O)c1cc2sccc2n1Cc1ccc(F)cc1 -18.3%
CCCCC(=O)Nc1nnc(S(=O)(=O)N2CCCCCC2)s1 -12.8%
O=C(Nc1ccc(F)c(Cl)c1)C1CCCN(c2ncnc3onc(-c4ccc(F)cc4)c23)C1 (stereo not drawn) -4.84%
